Results published in paper PMC12040169 (PLOS Biology, 2025).
Some of the results follow.

System: T1, C. trachomatis L2/434/Bu expressing GFP (CTL2-GFP)
T1 construct: L2/434/Bu GFP intracellular growth in HeLa cells
Parameters: species or system HeLa; C. trachomatis total inclusion area by high-content imaging, normalised to DMSO
Details: total inclusion area; 28.5 h, 10 µM; inhibitor
Procedure, shortened: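 Bulk GFP and resorufin signals were read first. Wells were then fixed, stained with Hoechst and imaged to detect GFP inclusions and host nuclei. MICs followed the previously described calculation.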

Going from `Cc1ccc(C)c(NC(=O)N2CCC3(CCc4nccc(C)c4C3=O)CC2)c1` [CBK059554] to `COc1cc(C(=O)N2CCC3(CC2)NC(=O)c2cc(Br)ccc2O3)ccc1C` [CBK149464], the “% of control remaining” value rises from 54.5983 to 88.7587.

Compared with `C=CCn1c(SCC(=O)Nc2ccc(C(=O)OC)cc2)nnc1-c1ccc(Br)cc1` [CBK101797], `COc1ccc(/C=N/NC(=O)CSc2nnc(C)n2-c2ccccc2)cc1` [CBK262812] is higher in “% of control remaining” value: 94.0586 for the first, 105.268 for the second.

First: COc1ccc(OCCNC(=O)c2cc(Br)cnc2N(C)C(C)=O)cc1 [CBK076467]
Second: COc1ccc(C(CC(=O)O)NC(=O)c2ccc(Cl)cc2Cl)cc1 (stereo not drawn) [CBK269131]
The “% of control remaining” value of the first is lower: 83.9795 for the first, 94.8129 for the second.

First: CC(C)n1nccc1C(=O)N1CCCC(c2cc3cccnc3[nH]2)C1 (stereo not drawn) [CBK284930]
Second: Cc1nc2cc(C(=O)N3CCC(c4ccccc4)C3)ccc2n1C (stereo not drawn) [CBK281841]
The “% of control remaining” value of the first is lower: 73.4687 for the first, 104.525 for the second.

Going from `O=[N+]([O-])c1ccc(O)c(/C=N/c2ccc3cc4ccc(/N=C/c5cc([N+](=O)[O-])ccc5O)cc4nc3c2)c1` [CBK261557] to `N#Cc1ccccc1CSc1nc2ccc(NC(=O)c3ccc([N+](=O)[O-])cc3)cc2s1` [CBK265868], the “% of control remaining” value rises from 56.4278 to 117.011.

First: CN(C)C(c1ccc2c(c1)OCO2)c1nnnn1C1CCCCC1 (stereo not drawn) [CBK020620]
Second: O=c1[nH]c2ncc(-c3ccc4c(c3)OCO4)nc2n1C1CC1 [CBK064922]
The “% of control remaining” value of the first is lower: 97.2666 for the first, 136.193 for the second.

First: COc1ccc2c(c1)C1(CC(=O)N(CC(=O)N(C)C)C1=O)C(=O)N2Cc1ccc2ccccc2n1 (stereo not drawn) [CBK075923]
Second: O=C(COC(=O)CN1C(=O)C(=O)c2ccccc21)Nc1cccc2ccccc12 [CBK263915]
The “% of control remaining” value of the first is lower: 100.073 for the first, 100.564 for the second.

First: COCCOC(=O)C1=C(C)N(c2ccc(C(=O)O)cc2)C(=O)NC1c1ccccc1Cl (stereo not drawn) [CBK296986]
Second: Cc1ccc(N2C(=O)c3ccc(C(=O)OCc4ccc([N+](=O)[O-])cc4)cc3C2=O)cc1Cl [CBK265730]
The “% of control remaining” value of the first is higher: 87.0303 for the first, 85.1675 for the second.

Compared with `O=[N+]([O-])c1ccc2c(c1)C(N1CCOCC1)/C(=C/COc1ccc3ccccc3c1Br)O2` (stereo not drawn) [CBK262738], `Cc1cccc(C)c1OCC(=O)Nc1ccc(S(=O)(=O)N2CCOCC2)cc1` [CBK266967] is higher in “% of control remaining” value: 96.5809 for the first, 111.926 for the second.

Going from `c1cnn(C2CCCN(Cc3ccc(Oc4cnccn4)cc3)C2)c1` (stereo not drawn) [CBK304043] to `Cc1ccc(Cn2ncc3c(C(=O)N4CCC(N(C)S(C)(=O)=O)CC4)cc(C)nc32)cc1` [CBK298280], the “% of control remaining” value rises from 85.5437 to 123.978.

Going from `O=C1C2C=NNC2C(=O)N1c1ccccc1` (stereo not drawn) [CBK022326] to `O=C(NCc1nnc2ccccn12)c1ccccc1` [CBK288064], the “% of control remaining” value rises from 84.5319 to 101.006.

First: Cc1ccc2[nH]c(SCC(=O)Nc3cccc(NC(=O)C45CC6CC(CC(C6)C4)C5)c3)nc2c1 [CBK265679]
Second: O=C(Cn1cnc2ccccc2c1=O)Nc1cccc(-c2cnc3ccccc3n2)c1 [CBK270020]
The “% of control remaining” value of the first is lower: 89.4917 for the first, 92.6201 for the second.

Compared with `CS(=O)(=O)Nc1ccc2cc(-c3cccc(C(F)(F)F)c3)cnc2n1` [CBK085671], `Cc1c(F)cccc1CN(CC(C)(C)CN)C(=O)Nc1ccc(C(F)(F)F)cc1` [CBK002417C] is lower in “% of control remaining” value: 97.7844 for the first, 62.3732 for the second.

Going from `Cc1nc2ccc(C(=O)N(C)CCN3CCCCC3)cc2s1` [CBK281919] to `O=C(CN1C(=O)N2CCCN=C2c2ccccc21)N1CCCCC1` [CBK284395], the “% of control remaining” value rises from 89.1419 to 90.2505.

Compared with `Cc1ccc(C(=O)N2CN(C(=O)CNC(C)(C)C)CC2(C)C)cc1` [CBK089575C], `CC(C)NC(=O)C1(Cc2ccc(-c3ccccc3)cc2)CCN(C(=O)C2CCCC2)CC1` [CBK285751] is higher in “% of control remaining” value: 36.4711 for the first, 93.0642 for the second.

Compared with `Cc1noc(C)c1C(=O)N1CCOCC1` [CBK057765], `O=C(CN1CCOCC1)NCCNc1c(Cl)c(Cl)c(Cl)c(Cl)c1Cl` [CBK266851] is higher in “% of control remaining” value: 76.4823 for the first, 97.7513 for the second.

Going from `CN(CC(F)(F)F)C(=O)CCc1nc(-c2cccs2)no1` [CBK282215] to `CCOc1ccc(CN(C)C(C)C(=O)Nc2cc(C)no2)cc1` (stereo not drawn) [CBK305607], the “% of control remaining” value falls from 91.3466 to 69.1218.

First: Cn1cncc1CN1CCNC(=O)C1c1ccccc1C(F)(F)F (stereo not drawn) [CBK305495]
Second: CCCCn1nc(Cn2cncn2)nc1CC1NC(=O)c2ccccc21 (stereo not drawn) [CBK307395]
The “% of control remaining” value of the first is lower: 38.9371 for the first, 70.7859 for the second.

Going from `O=C(c1cc[nH]c1)N1CCC2(CCN(Cc3ccccc3)CC2)C1` [CBK136756] to `CN1CCN(C(=O)c2ccc(-c3ccc4c(c3)OCO4)nc2NCc2cccnc2)CC1` [CBK076110], the “% of control remaining” value rises from 95.7087 to 96.1485.

Going from `CC(C)[C@@H](N)Cn1nnc2ccccc21` [CBK284323] to `Cc1n[nH]cc1C(=O)NC[C@H]1CC[C@H](c2cc(C(=O)NC(C)C)c3ccccc3n2)CC1` [CBK285862], the “% of control remaining” value rises from 88.9454 to 117.029.

Going from `Cc1cc(OCC(=O)Nc2ccc(S(=O)(=O)Nc3onc(C)c3C)cc2)cc(C)c1Cl` [CBK263491] to `Cc1ccc(S(=O)(=O)c2ccc(C)c(S(N)(=O)=O)c2)cc1S(N)(=O)=O` [CBK261664], the “% of control remaining” value rises from 17.1956 to 104.217.

First: O=C(O)CN1CCN(c2ncnc3sc4c(c23)CCCC4)CC1 [CBK286836]
Second: CCOC(=O)c1c(NC(=O)Cn2cnc([N+](=O)[O-])n2)sc2c1CCCC2 [CBK262583]
The “% of control remaining” value of the first is higher: 130.593 for the first, 110.156 for the second.

First: O=S(=O)(NC[C@H]1C[C@@H]2CC[N@]1C[C@@H]2CN1CCOCC1)c1cccs1 [CBK288759]
Second: O=C(NC1CC1)[C@H]1CN2CCC1C[C@@H]2Cn1cc(-c2cccc(O)c2)nn1 (stereo partly drawn) [CBK288738]
The “% of control remaining” value of the first is lower: 102.351 for the first, 121.174 for the second.

Going from `CC(=O)N1CCC(C(=O)NC(=O)NCCOc2ccccc2Cl)CC1` [CBK034842] to `Cn1c(=O)n(CC(=O)N2CCC(C(=O)NC(c3ccccc3)c3ccccn3)CC2)c2ccccc21` (stereo not drawn) [CBK060494], the “% of control remaining” value rises from 86.6795 to 108.64.

First: COc1ccnc(N2CCN(Cc3nnnn3C3CC3)CC2)n1 [CBK305808]
Second: Clc1cnc2nc(NCC3CCCCC3)sc2c1 [CBK067087]
The “% of control remaining” value of the first is higher: 42.0434 for the first, 30.0619 for the second.

Going from `Cc1ccc2nc3c(cc2c1)CN(Cc1ccco1)C(=O)CO3` [CBK283594] to `COc1ccc(CNC(=O)[C@H]2C=CCN2C(=O)c2ccco2)cc1` [CBK284321], the “% of control remaining” value rises from 70.2993 to 103.81.

First: CC1CCCCN1C(=O)c1cccc(Cn2cc(Br)c([N+](=O)[O-])n2)c1 (stereo not drawn) [CBK058788]
Second: CC(=O)N1CCc2sccc2C1c1ccc(NC(=O)C2CC2)cc1 (stereo not drawn) [CBK282907]
The “% of control remaining” value of the first is lower: 75.7223 for the first, 92.7726 for the second.

First: Cc1nc(O)cc(C2CCCN(C(=O)c3scc4c3CCCC4)C2)n1 (stereo not drawn) [CBK306969]
Second: Cc1cc(C)nc(NC(=O)OCCN2CCN(C)CC2)c1 [CBK138235]
The “% of control remaining” value of the first is lower: 71.1188 for the first, 93.6559 for the second.

First: O=C(CCCN1C(=O)c2cccc3cccc(c23)C1=O)NCc1cccnc1 [CBK262190]
Second: CC(NC(=O)c1cn(C)c(=O)c2ccccc12)c1ccccn1 (stereo not drawn) [CBK281886]
The “% of control remaining” value of the first is higher: 99.2377 for the first, 96.0745 for the second.

Going from `COC(=O)Nc1nc2cc3cn[nH]c3cc2[nH]1` [CBK016129] to `CCOC(=O)C(C)NC(=O)c1cc2ccc(F)cc2[nH]1` (stereo not drawn) [CBK283214], the “% of control remaining” value falls from 104.785 to 60.8365.

Compared with `COc1ccccc1C(C)N(C)CCC(=O)Nc1cc(C)on1` (stereo not drawn) [CBK305098], `CN(C)CCCC(=O)Nc1cccc2[nH]ccc12` [CBK159660] is lower in “% of control remaining” value: 97.2387 for the first, 90.24 for the second.

Going from `COc1ccc(CC(=O)NC(CCSC)c2nnc3ccccn23)cc1` (stereo not drawn) [CBK306077] to `CC(=O)NCCc1c(C(=O)O)[nH]c2ccc(OCc3ccccc3)cc12` [CBK260945], the “% of control remaining” value rises from 58.752 to 104.775.

Compared with `N=C(N)SCCCCCSC(=N)N` [CBK278314B], `C=CCNC(=O)N[C@H]1[C@H](O)[C@@H](N(CC)CC)[C@@H]2OC[C@H]1O2` [CBK288817] is higher in “% of control remaining” value: 93.7552 for the first, 120.597 for the second.

First: Fc1ccccc1-c1cn2ccnc2c(N2CCOCC2)n1 [CBK036584]
Second: c1ccc2c(c1)OCC(COc1cncc(N3CCNCC3)n1)O2 (stereo not drawn) [CBK172357G]
The “% of control remaining” value of the first is higher: 89.8799 for the first, 37.1173 for the second.

Compared with `CC1CN(S(=O)(=O)c2ccc(NC(=O)C3CC(=O)Nc4cc(F)ccc43)cc2)CC(C)O1` (stereo not drawn) [CBK297933], `COC(=O)CCc1ccc(S(=O)(=O)N2CCCN(Cc3cc(F)c(F)c(F)c3)CC2)cc1` [CBK062998] is higher in “% of control remaining” value: 81.2967 for the first, 97.1131 for the second.

First: CCOc1cc(/C=C2\S/C(=N/c3ccc(S(N)(=O)=O)cc3)NC2=O)c(Br)cc1O [CBK265622]
Second: Cc1cc(=O)oc2cc(NC(=S)NNC(=O)c3ccc(Cl)s3)ccc12 [CBK266828]
The “% of control remaining” value of the first is lower: 88.2249 for the first, 94.865 for the second.

Going from `CC(C)N(C)CC(=O)N(C)c1nc2c(s1)CC(c1ccccc1)CC2` (stereo not drawn) [CBK305535] to `Fc1ccc(C2CCc3n[nH]cc3C2)cc1` (stereo not drawn) [CBK015957C], the “% of control remaining” value rises from 48.8089 to 115.893.

Going from `O=C(NC1CC2(CCCC2)Oc2ccccc21)C1CCOC1` (stereo not drawn) [CBK283802] to `O=C(COc1ccccc1Cl)Nc1nnc[nH]1` [CBK287946], the “% of control remaining” value falls from 104.915 to 87.0293.

First: CC(C)CS(=O)(=O)Nc1ccc(F)cc1F [CBK020615]
Second: CN(Cc1ccccc1)S(=O)(=O)c1ccccc1[N+](=O)[O-] [CBK261458]
The “% of control remaining” value of the first is lower: 104.88 for the first, 117.077 for the second.
